# Structures can show the parent of a compound that is named as a salt. The list shows a part of the results. Many values rest on one well or one pass, so single values are uncertain.
# System: CquiOR32-CquiOrco
# Test: current response class (signed ordinal: positive = inward/excitatory, negative = outward/inhibitory) (ordinal score (-3..3)); higher = stronger inward (excitatory) current
# Conditions: 1 mM; holding potential (mV): -80
# Protocol: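 Xenopus oocytes co-expressing Culex quinquefasciatus CquiOR32 with CquiOrco were challenged by two-electrode voltage clamp (holding -80 mV) with a panel of about 200 odorants at 1 mM source dose (2 s stimulus). The response was scored qualitatively: + to +++ for weak to strong inward currents, x to xxx for weak to strong outward (inhibitory, reverse) currents, +/- and x/- for very weak currents (S/N 2-5), and - for no response. Scale: negative = stronger reverse/inhibitory current.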
row,Compound,current response class
1,CCCCN [butylamine],inactive: 0
2,CCCCCCCOC(C)=O [heptyl acetate],inactive: 0
3,COC(=O)/C=C(\C)CCC=C(C)C [methyl geranate],inactive: 0
4,CC(C=O)Cc1ccc(C(C)(C)C)cc1 (stereo not given) [lilial],inactive: 0
5,CCCCCCCCCCCCCCCCO [1-hexadecanol],inactive: 0
6,CCCCCCCC(C)O (stereo not given) [2-nonanol],inactive: 0
7,OC1CCCCC1 [cyclohexanol],active: 1
8,C=CC(CCCCC)OC(C)=O (stereo not given) [1-octen-3-yl acetate],inactive: 0
9,CCC/C=C/C(=O)O [(E)-2-hexenoic acid],inactive: 0
10,CC/C=C\CCCCCCC=O [(Z)-8-undecenal],inactive: 0
11,C=CC(C)(C)O [2-methyl-3-buten-2-ol],inactive: 0
12,CSC [dimethyl sulfide],inactive: 0
13,Cc1cccc(O)c1 [3-methylphenol],active: 1
14,CCC/C=C/CO [(E)-2-hexen-1-ol],active: 2
15,CCCCCCCCCCC(=O)OCC [ethyl undecanoate],inactive: 0
16,O=COCCc1ccccc1 [2-phenethyl formate],inactive: 0
17,CC(=O)OC/C=C(/C)CCC=C(C)C [neryl acetate],inactive: 0
18,CCCCCCCCCCCC(C)=O [2-tridecanone],inactive: 0
19,CC(O)c1ccccc1 (stereo not given) [1-phenylethanol],active: 2
20,"CCN(CC)C(=O)c1cccc(C)c1 [N,N-Diethyl-m-toluamide (DEET)]",active: -2

row,Compound,current response class
1,C=CC(C)(O)CCC=C(C)C (racemic) [(±)-linalool],active: -1
2,CCCCO [1-butanol],inactive: 0
3,CC(C)CCO [isoamyl alcohol],inactive: 0
4,"CC(=O)CC(C)=O [2,4-pentanedione]",active: 1
5,CCC(C)NC(=O)Cc1ccccc1 (stereo not given) [N-sec-butyl-2-phenyl-acetamide],active: -1
6,CCCCCCC(C)=O [2-octanone],inactive: 0
7,CCCCCCCC(C)=O [2-nonanone],inactive: 0
8,CC1(C)C(=O)[C@@]2(C)CC[C@@H]1C2 [D-fenchone],active: -3
9,"Cc1cccc(C)c1O [2,6-dimethylphenol]",inactive: 0
10,CCCCCC(=O)OC [methyl hexanoate],inactive: 0
11,C=CC(O)CCC (stereo not given) [1-hexen-3-ol],active: 1
12,CCCOC(C)=O [propyl acetate],inactive: 0
13,CCc1ccc(O)cc1 [4-ethylphenol],inactive: 0
14,CCC(C)O (stereo not given) [2-butanol],inactive: 0
15,CCCCCCCCN [octylamine],inactive: 0
16,"CC(C)(C)c1ccc(O)c(C(C)(C)C)c1 [2,4-di-tert-butylphenol]",inactive: 0
17,Cc1cccc(C(=O)Nc2ccccc2C(C)C)c1 [N-(2-isopropylphenyl)-3-methylbenzamide],inactive: 0
18,CC(=O)OC1CC(C)CCC1C(C)C (stereo not given) [menthyl acetate],inactive: 0
19,CCCCOCCO [2-butoxyethanol],active: 1
20,CCCCCCCCCO [1-nonanol],inactive: 0
